Laboratory results as given in the supplement of paper PMC10338343.
± gives the standard deviation. Only a part is listed here, and it is no random draw.

What follows are sequences tested on MIWI (PIWIL1) piRISC loaded with L1MC piRNA (30 nt) (assay: pre-steady-state target cleavage rate (min^-1); MIWI and MILI are mouse PIWI proteins and EfPiwi is from a freshwater sponge; tags in brackets are library labels; higher = faster piRNA-guided slicing of the target). Conditions: guide: L1MC piRNA 5'p-UAACUAAAUACUAUGCAAGCUGUAGGUCCU; auxiliary factor: 500 nM mouse GTSF1.
In short: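 The pre-steady-state cleavage rate came from a burst-and-steady-state fit to pooled data from three Cleave-'n-Seq trials, in which uncleaved targets were sequenced and normalised to depth and to weakly complementary targets. Each reaction held 0.1 nM transcribed, DNA-blocked target RNA library and 1 nM active affinity-purified piRISC carrying one synthetic guide, with or without 500 nM GTSF1 partner protein, in HEPES–potassium acetate buffer at 33 °C for 0–8 or 0–960 min. k3 was capped at 0.0001 min^-1.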

Row | Sequence | pre-steady-state target cleavage rate
1 | UCCUGGAUGUCCUUGCAUACUAUUUUGUUA | 0.0044 ± 0.0041
2 | AGGUGGUACAGCUUGCAUAGUAUUUUCAAA | 0.102 ± 0.023
3 | UCCUGGAUGUGGUUGCAAAGUAUUUAGUUA | 0.00806 ± 0.0043
4 | UCCUGGAUGUCCUUGCUUAGUAUUUAGUAA | 0.00726 ± 0.004
5 | UCCUGGAUGUCGAACGUAUGUAUUUAGAUA | < 0.0001
6 | UCCUGCUACAGCUUGCAUAGUAAAAACAAA | 0.107 ± 0.028
7 | UCCUCCUAGUCCUUGCAUAGUAUUUUCAAA | 0.0767 ± 0.02
8 | UCCUGGAUCAGCUUGCAUAGUAUAAAGAAA | 0.0496 ± 0.012
9 | UCCUGGAUGUCCUUGCAAAGUAUUUACUUA | 0.0186 ± 0.0064
10 | UCCUGGAUGUCGUUGCAUAGUAUUUAAUUA | 0.012 ± 0.0043
11 | AGGACCUACAGCUUGCAUUCAAUUUAGUUA | 0.228 ± 0.083
12 | UCCUGGAUGUGCUUGCAUUGAAUUUAGUUA | 0.0036 ± 0.0033
13 | UCCUGCUACAGCAACCAUAGUAUUUAGUUA | 0.22 ± 0.032
14 | UCCUGGAUCAGCAUGCAUAGUAUUUACAAA | 0.156 ± 0.034
15 | UCCUGGAUGAGCUUGGAUAGUAUUUAGAAA | 0.0178 ± 0.0058
16 | UCCUGGAACAGGUUCCAUAGUAUUUAGUUA | 0.182 ± 0.046
17 | UCCUGGAUGUCGAUGCAUAGUAUUUAGUUU [g2:g17:cont:t1U] | 0.00599 ± 0.0026
18 | UCCUGGAUGAGCUUGCAUACUAUUUACAAA | 0.00497 ± 0.0042
19 | UCCUGGAUGUCGAACCUUAGUAUUUAGUUA | < 0.0001

Row | Sequence | pre-steady-state target cleavage rate
20 | UCCUCCUACAGCUUGCAUAGUAAAAUCAAA | 0.159 ± 0.041
21 | UGGACCUACUCGUUGCAUAGUAUUUUCAAA | 0.0138 ± 0.0032
22 | UCCUGGAUGUGCUUCAUAGUAUUUAGUUA | 0.105 ± 0.011
23 | UCCUGGAUCAGCUUGCUAAGUAUUUAGUAA | 0.00706 ± 0.004
24 | UGGACCUACAGCUUCCAAAGUAUUUAGUUA | 0.439 ± 0.036
25 | UCCUGGAUGAGCUAGGAUAGUAUUUAGUUA | 0.157 ± 0.023
26 | UCCUGGAACAGCAACCAUAGUAUUUAGUUA | 0.017 ± 0.0031
27 | UCCUGGUACAGCAACCAUAGUAUUUAGUUA | 0.0521 ± 0.011
28 | UCCUGGAUGUCGAACCUUACUAUUUAGUUA | < 0.0001
29 | UCCUGGAUGUCGAUCAUAGUAUUUAGUUA | 0.00647 ± 0.0034
30 | UCCUGGAUGAGCUUGCAUAGAAAUUAGUUA | 0.0143 ± 0.0049
31 | UCCUGGAUCAGCAUCCAUAGUAUUUAGUUA | 0.051 ± 0.017
32 | UCCACCUUGUGCUUGCAUAGUAUUUAGAAA | 0.121 ± 0.017
33 | UCCUGGAACAGGAAGCAUAGUAUUUAGUAA | 0.0207 ± 0.0047
34 | UCCUGGAUGUCCUUGUCAUAGUAUUUAGUUA | 0.00692 ± 0.0045
35 | UCCUGGAUCAGGUUGCAUAGUAUUUUCAAA | 0.0415 ± 0.014
36 | UGGACCUACAGCUUGCAUAGUAAAUAGUAA | 0.224 ± 0.034
37 | UCCUGGAACAGCUUGCAUAGUAUUAUGAAA | 0.257 ± 0.051
38 | UCCUGGAUGUCCAAGCAUAGUAUUUAGUUA | 0.011 ± 0.005
